# Measurements taken from PMC8329197, “Compounds targeting OSBPL7 increase ABCA1-dependent cholesterol efflux preserving kidney function in two models of kidney disease” (Nature Communications, 2021).
# Experiments:
# [1] = molecular target: human cannabinoid 1 receptor (hCB1-R) (Homo sapiens, UniProt P21554); test: Potency for binding to the CB1R in vitro (Ki); conditions: human CB1 receptor binding
# [2] = tested on: T1, OSBPL7; test: Competition with ^3H-Cpd K UV cross-linking to FLAG-tagged OSBPL7 in HEK293 cells (immunoprecipitation, autoradiography); type: binding, human; conditions: unlabeled Cpd K at 50-fold excess; Cpd A, Cpd G 10 and 50 µM
# T1 construct: Plasmids expressing each as a full-length protein with a C-terminal FLAG tag were obtained; expressed in transfected cells; host or cells: HEK293
# Description: Briefly, a plasmid expressing a candidate target of interest fused with a FLAG tag was transfected into HEK293 cells. After 24 h, tritiated compound K at a concentration capable of inducing ABCA1-mediated cholesterol efflux (1.0 μM) was added for 3 h, then the live cells were exposed to UV-light (ʎ = 336 nm) to query potential compound/target cross-linking in situ. Cell lysates were prepared, the expressed protein was then selectively immunoprecipitated using an anti-FLAG antibody coupled to sepharose beads, bound proteins were separated by SDS-PAGE, and two identical blots were prepared and probed by western blot and by autoradiography to detect protein expression and presence or absence of compound crosslinking, respectively. The flow chart of this screen is illustrated in Fig. 2. Figure 2d illustrates the ability of Cpd A and Cpd G to displace tritiated Cpd K from overexpressed and immunoprecipitated OSBPL7. Figure 3b illustrates the use of this assay to detect binding of tritiated Cpd K to overexpressed and immunoprecipitated variants of OSBPL7 containing point mutations in the predicted oxysterol binging pocket of OSBPL7. […]
# [3] = tested on: ABCA1 protein; test: ABCA1 western blot in podocyte whole-cell lysates; type: cell-based, human; conditions: Cpd G 10 µM, Cpd A 5 µM; podocytes
# Description: Cell lines were purchased from ATCC and subcultured for no more than passage 15, except for human podocytes, which were originally from Dr Jochen Reiser. Conditionally immortalized human podocytes were cultured under permissive conditions at 33 °C, in RPMI medium (Corning) containing 10% FBS (GIBCO), 1% penicillin/streptomycin, 0.01 mg/ml recombinant human insulin, 0.0055 mg/ml human transferrin (substantially iron-free), and 0.005 μg/ml sodium selenite (ITS, Corning). To induce differentiation, podocytes were cultured at 37 °C for 14 days in RPMI medium containing 10% FBS (GIBCO) and 1% penicillin/streptomycin. Differentiated podocytes were starved in RPMI-0.2% FBS for 18 h and then treated with 1 μM, 5 μM, and 10 μM of compounds freshly prepared in DMSO for 18 h at 37 °C as indicated.
# Lysates, or cell fractions were incubated in Laemmli buffer at 55 °C for 10 min under reducing conditions. A total of 30 μg of protein from cell lysates or one-third of the volume collected in cell fraction preparations was separated by SDS-PAGE in 4–20% gradient gels (Biorad) and proteins were then transferred to PVDF membranes. […] Signals were detected after incubation with Westernbright ECL HRP substrate (Advansta) and luminescence signals were captured with Azure C600 Gel Imaging workstation (Azure Biosystems Inc, USA) or X-ray films.
# [4] = tested on: Adriamycin (ADR)-induced nephropathy in Balb/c mice; test: ADR nephropathy: serum cholesterol and triglycerides; type: in vivo, mouse
# [5] = tested on: CYP; test: CYP Induction; type: in vitro ADME
# [6] = GSH adduct; type: in vitro ADME
# Chain of human cannabinoid 1 receptor (hCB1-R) (P21554 whole entry): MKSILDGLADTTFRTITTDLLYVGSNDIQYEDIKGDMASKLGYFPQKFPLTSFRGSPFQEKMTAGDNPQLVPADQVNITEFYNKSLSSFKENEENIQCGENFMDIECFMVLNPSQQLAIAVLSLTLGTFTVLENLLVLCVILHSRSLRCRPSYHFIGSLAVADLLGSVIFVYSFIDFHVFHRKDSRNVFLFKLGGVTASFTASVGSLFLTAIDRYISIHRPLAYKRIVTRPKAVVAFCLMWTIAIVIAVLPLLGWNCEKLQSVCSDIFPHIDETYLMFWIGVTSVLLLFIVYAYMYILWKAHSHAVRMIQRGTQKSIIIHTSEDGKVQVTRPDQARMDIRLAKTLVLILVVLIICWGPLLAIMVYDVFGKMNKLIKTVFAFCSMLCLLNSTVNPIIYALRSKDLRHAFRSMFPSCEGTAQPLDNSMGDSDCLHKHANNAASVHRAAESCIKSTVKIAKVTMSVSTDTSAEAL
smiles,measurement,setting,value
O=C(N[C@@H]1CCCC[C@H]1O)c1cnc(OCC(F)(F)F)c(-c2ccc(Cl)c(Cl)c2)c1 [Cpd G],Ki,[1],1.32 µM
same,Competition for ^3H-Cpd K binding to OSBPL7,[2],effective competitors
same,ABCA1 protein levels in whole-cell lysates,[3],significantly increased ABCA1 protein levels
same,Animals with sporadically high cholesterol levels (>122 mg/dL),"[4]; plasma, 28 days of treatment, ADR-challenged",none
same,"Cholesterol (mg/dL), Median(IQR)","[4]; serum, after ADR challenge",104(93-115) mg/dL
same,"Cholesterol (mg/dL), Range","[4]; serum, after ADR challenge",85 to 121 mg/dL
same,"Triglycerides (mg/dL), Median(IQR)","[4]; serum, after ADR challenge",113(84-133) mg/dL
same,"Triglycerides (mg/dL), Range","[4]; serum, after ADR challenge",68 to 140 mg/dL
same,CYP Induction,[5],Negative
same,GSH adduct,[6],Negative
